Test results from the supplement of paper PMC4967469.

Legend:
Assay in all cases: Viability of human cancer cell lines after 72 h of drug (GDSC screen)
[1] = compound: Oc1nc(-c2ccc(C(F)(F)F)cc2)nc2c1CSCC2 [XAV 939]; settings: top dose 5 µM; top dose inferred
Procedure: (§1)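 Human cancer cell lines in 384-well plates, medium with 10% serum, drug for 72 h over a 256-fold dose range (nine 2-fold or five 4-fold steps up to the top dose). Adherent lines were fixed and stained with the nucleic acid dye Syto60, suspension lines read with resazurin; signal relative to control wells, capped at 0 and 100%. One two-parameter sigmoid per drug and line, fitted in a mixed model over all curves with the slope shared within a line.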

[2] = compound: O=C(O)c1ccc(-c2c[nH]c3ncc(-c4ccccc4)cc23)cc1C1CCCC1 [GSK-650394]; settings: top dose 16 µM; top dose inferred
Procedure: as §1

[3] = compound: COc1cc(C(=O)NC2CCN(C)CC2)ccc1Nc1ncc2c(n1)N(C1CCCC1)C(C)CC(=O)N2C [NPK76-II-72-1]; settings: top dose 10.24 µM; top dose inferred
Procedure: as §1

[4] = compound: Cc1ccc2nc(NCCN)c3ncc(C)n3c2c1 [BMS-345541]; settings: top dose 16 µM
Procedure: as §1

[5] = compound: NC(=O)Nc1cc(-c2cccc(F)c2)sc1C(=O)N[C@H]1CCCNC1 [AZD7762]; settings: top dose 2 µM
Procedure: as §1

[6] = compound: COc1ccc(C(=O)CC2(O)C(=O)Nc3c(Cl)ccc(Cl)c32)cc1 [YK 4-279]; settings: top dose 10 µM
Procedure: as §1

[7] = compound: C=C(c1ccc(C(=O)O)cc1)c1cc2c(cc1C)C(C)(C)CCC2(C)C [Bexarotene]; settings: top dose 8 µM
Procedure: as §1

| Cell Line | AUC [1] | IC50 [1] [µM] | AUC [2] | IC50 [2] [µM] | AUC [3] | IC50 [3] [µM] | AUC [4] | IC50 [4] [µM] | AUC [5] | IC50 [5] [µM] | AUC [6] | IC50 [6] [µM] | AUC [7] | IC50 [7] [µM] |
| --- | --- | --- | --- | --- | --- | --- | --- | --- | --- | --- | --- | --- | --- | --- |
| Mewo (melanoma, adherent) | 0.979 | > 5 | 0.973 | > 16 | 0.984 | > 10.2 | 0.91 | > 16 | 0.65 | 0.355 | 0.817 | 7.03 | 0.973 | > 8 |
| NCI-H23 (lung adenocarcinoma, adherent) | 0.965 | > 5 | 0.986 | > 16 | 0.938 | > 10.2 | 0.898 | > 16 | 0.725 | 0.541 | 0.607 | 1.22 | 0.982 | > 8 |
| NCI-H187 (small cell lung carcinoma, suspension) | 0.982 | > 5 | 0.984 | > 16 | 0.629 | 1.5 | 0.906 | > 16 | 0.946 | > 2 | 0.986 | > 10 | 0.987 | > 8 |
| NCI-H441 (lung adenocarcinoma, adherent) | 0.953 | > 5 | 0.863 | > 16 | 0.968 | > 10.2 | 0.969 | > 16 | 0.887 | > 2 | 0.811 | 8.31 | 0.886 | > 8 |
| NCI-H446 (small cell lung carcinoma, semi-adherent) | 0.897 | > 5 | 0.895 | > 16 | 0.272 | 0.136 | 0.857 | 14.5 | 0.714 | 0.529 | 0.623 | 1.4 | 0.985 | > 8 |
| NCI-H460 (large cell lung carcinoma, adherent) | 0.989 | > 5 | 0.72 | 3.92 | 0.938 | > 10.2 | 0.916 | > 16 | 0.553 | 0.172 | 0.688 | 1.98 | 0.987 | > 8 |
| NCI-H520 (lung squamous cell carcinoma, adherent) | 0.972 | > 5 | 0.848 | 12.5 | 0.643 | 1.61 | 0.858 | 13.9 | 0.843 | 1.49 | 0.833 | 6.73 | 0.963 | > 8 |
| NCI-H661 (large cell lung carcinoma, adherent) | 0.906 | > 5 | 0.859 | > 16 | 0.834 | 8.7 | 0.819 | 11.6 | 0.578 | 0.214 | 0.721 | 3.06 | 0.949 | > 8 |
| NCI-H716 (large intestine, suspension) | 0.965 | > 5 | 0.976 | > 16 | 0.753 | 4.22 | 0.67 | 3.39 | 0.721 | 0.633 | 0.81 | 7.03 | 0.976 | > 8 |
| NCI-H838 (lung adenocarcinoma, adherent) | 0.855 | 4.26 | 0.971 | > 16 | 0.829 | 6.7 | 0.976 | > 16 | 0.583 | 0.213 | 0.743 | 3.21 | 0.985 | > 8 |
| NCI-H1048 (small cell lung carcinoma, adherent) | 0.983 | > 5 | 0.701 | 3.43 | 0.492 | 0.611 | 0.835 | 9.02 | 0.825 | 1.05 | 0.785 | 3.82 | 0.983 | > 8 |
| NCI-H1417 (small cell lung carcinoma, suspension) | 0.943 | > 5 | 0.843 | 14.6 | 0.602 | 1.29 | 0.809 | 10.4 | 0.581 | 0.217 | 0.729 | 3.21 | 0.981 | > 8 |
| NCI-H1703 (lung adenocarcinoma, adherent) | 0.944 | > 5 | 0.926 | > 16 | 0.936 | > 10.2 | 0.879 | > 16 | 0.199 | 0.0126 | 0.657 | 1.88 | 0.951 | > 8 |
| NCI-H1876 (small cell lung carcinoma, adherent) | 0.964 | > 5 | 0.982 | > 16 | 0.863 | 9.04 | 0.877 | > 16 | 0.638 | 0.302 | 0.751 | 3.32 | 0.987 | > 8 |
| NCI-H1993 (lung adenocarcinoma, adherent) | 0.965 | > 5 | 0.983 | > 16 | 0.925 | > 10.2 | 0.904 | > 16 | 0.98 | > 2 | 0.739 | 3.81 | 0.945 | > 8 |
| NCI-H2110 (non-small cell lung carcinoma, adherent) | 0.985 | > 5 | 0.926 | > 16 | 0.727 | 2.88 | 0.886 | > 16 | 0.672 | 0.381 | 0.836 | 6.85 | 0.943 | > 8 |
| NOMO-1 (acute myeloid leukaemia, suspension) | 0.979 | > 5 | 0.941 | > 16 | 0.594 | 1.2 | 0.782 | 7.66 | 0.44 | 0.0838 | 0.798 | 5.51 | 0.923 | > 8 |
| OCI-AML2 (acute myeloid leukaemia, suspension) | 0.995 | > 5 | 0.698 | 3.05 | 0.61 | 1.18 | 0.903 | 11.5 | 0.642 | 0.277 | 0.732 | 2.32 | 0.929 | 7.31 |
| OCI-LY-19 (B-cell lymphoma, suspension) | 0.958 | > 5 | 0.616 | 2.03 | 0.443 | 0.453 | 0.852 | 10.9 | 0.6 | 0.229 | 0.753 | 3.11 | 0.948 | > 8 |
| OVCAR-8 (ovary, adherent) | 0.981 | > 5 | 0.809 | 7.29 | 0.711 | 2.34 | 0.915 | > 16 | 0.693 | 0.407 | 0.744 | 2.85 | 0.961 | > 8 |
| RL (B-cell lymphoma, suspension) | 0.983 | > 5 | 0.99 | > 16 | 0.921 | > 10.2 | 0.695 | 3.35 | 0.774 | 0.718 | 0.976 | > 10 | 0.986 | > 8 |
| RVH-421 (melanoma, adherent) | 0.937 | > 5 | 0.98 | > 16 | 0.954 | > 10.2 | 0.804 | 11.8 | 0.81 | 1.57 | 0.669 | 2.21 | 0.884 | > 8 |
| SBC-5 (small cell lung carcinoma, adherent) | 0.98 | > 5 | 0.858 | 9.42 | 0.894 | 8.3 | 0.993 | > 16 | 0.746 | 0.534 | 0.518 | 0.691 | 0.947 | > 8 |
| SCC-9 (head and neck, adherent) | 0.938 | > 5 | 0.957 | > 16 | 0.833 | 9.31 | 0.817 | 12.2 | 0.878 | > 2 | 0.794 | 6.13 | 0.978 | > 8 |
| SK-HEP-1 (liver, adherent) | 0.931 | > 5 | 0.717 | 3.92 | 0.971 | > 10.2 | 0.894 | > 16 | 0.955 | > 2 | 0.658 | 1.67 | 0.932 | > 8 |
| SK-MEL-30 (melanoma, adherent) | 0.984 | > 5 | 0.776 | 6.75 | 0.944 | > 10.2 | 0.842 | 12.1 | 0.639 | 0.31 | 0.699 | 2.34 | 0.941 | > 8 |
| SK-MES-1 (lung squamous cell carcinoma, adherent) | 0.919 | > 5 | 0.784 | 7.41 | 0.985 | > 10.2 | 0.886 | > 16 | 0.786 | 0.942 | 0.862 | 9.78 | 0.859 | 7.58 |
| SU-DHL-4 (B-cell lymphoma, suspension) | 0.997 | > 5 | 0.995 | > 16 | 0.866 | 5.16 | 0.807 | 5.64 | 0.707 | 0.395 | 0.989 | > 10 | 0.986 | > 8 |
| SU-DHL-6 (B-cell lymphoma, suspension) | 0.995 | > 5 | 0.882 | 9.65 | 0.676 | 1.72 | 0.627 | 2.04 | 0.247 | 0.0299 | 0.868 | 5.44 | 0.938 | 7.87 |
| SW13 (adrenal gland, adherent) | 0.986 | > 5 | 0.963 | > 16 | 0.988 | > 10.2 | 0.969 | > 16 | 0.893 | > 2 | 0.687 | 2.11 | 0.955 | > 8 |

The IC50 comes from the fitted curve, where viability falls to half of the control; where the fit passes the top or lowest dose, that dose stands as a limit. The AUC spans the tested range (256-fold, ending at the top dose) of the same fit; it is 1 without any effect and falls as sensitivity rises. For part of these data: Where the top dose is marked as inferred, it is not printed in the source and was worked back from the curve model.
